# From the supplement of paper PMC8728848
# The list shows a part of the results.
# B1: MIC1 (Neospora caninum), Q8WRS0 (protein)
# chain: AGAKTYGEASQPSASARSLQGALDTWCQEVFKKLCDDGYSKMCIPANQVVARQGLGRKDQQKLVWRCYDSAAFLAEGDENNVLSCVDDCGVSIPCPGGVDRDNSTHATRHDELSQLIKEGVVRYCSGFQAAANSYCNKRYPGTVARKSKGFGHKEPVKWRCYKPESLLFSVFSECVSNCGTTWSCPGGRLGTATNLDKKHFTDESGILQALTSVPKACPVGLVCLPRDQNPPACLDDNGNVPE
# Assays:
# Experiment in all cases: glycan array binding signal (z-score within array); higher = stronger binding
# Conditions in all cases: glycan notation: IUPAC condensed, linker removed
# [1] = target: Fuc(a1-3)[Gal(b1-4)]GlcNAc(b1-3)Gal(b1-4)Glc
# Procedure, shortened: (§1)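 Glycan array data came from 3228 arrays in the Consortium for Functional Glycomics database, and only arrays with an available protein sequence were kept. Glycan names were put into IUPAC-condensed notation, and columns mapping to the same glycan were averaged. The binding signal is a within-array Z-score, averaged across arrays of one protein sequence run at different concentrations or buffers and across linkers. A negative Z-score can be read as non-binding.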
# [2] = target: Gal(b1-3)GalNAc(b1-4)[Neu5Ac(a2-3)]Gal(b1-4)Glc
# Procedure, shortened: as §1
# [3] = target: Gal(b1-3)GalNAc(b1-4)[Neu5Gc(a2-3)]Gal(b1-4)Glc
# Procedure, shortened: as §1
# [4] = target: Gal(b1-3)GlcNAc(b1-3)Gal(b1-4)Glc
# Procedure, shortened: as §1
# [5] = target: Gal(b1-3)GlcNAc(b1-3)[Gal(b1-4)GlcNAc(b1-6)]Gal(b1-4)Glc
# Procedure, shortened: as §1
# [6] = target: Gal(b1-3)[Neu5Ac(a2-6)]GlcNAc(b1-3)Gal(b1-4)Glc
# Procedure, shortened: as §1
# [7] = target: Gal(b1-4)GlcNAc
# Procedure, shortened: as §1
# [8] = target: Gal(b1-4)GlcNAc(b1-2)Man(a1-3)[Gal(b1-4)GlcNAc(b1-2)Man(a1-6)]Man(b1-4)GlcNAc(b1-4)GlcNAc
# Procedure, shortened: as §1
# [9] = target: Gal(b1-4)GlcNAc(b1-3)Gal(b1-4)Glc
# Procedure, shortened: as §1
# [10] = target: Neu(a2-3)Gal(b1-4)Glc
# Procedure, shortened: as §1
# [11] = target: Neu(a2-3)Gal(b1-4)GlcNAc(b1-3)Gal(b1-4)[Fuc(a1-3)]GlcNAc(b1-3)Gal(b1-4)Glc
# Procedure, shortened: as §1
# [12] = target: Neu(a2-3)Gal(b1-4)GlcNAc6S(b1-3)Gal(b1-4)Glc
# Procedure, shortened: as §1
# [13] = target: Neu(a2-3)Gal(b1-4)[Fuc(a1-3)]GlcNAc(b1-3)Gal(b1-4)Glc
# Procedure, shortened: as §1
# [14] = target: Neu(a2-3)Gal(b1-4)[Fuc(a1-3)]GlcNAc6S(b1-3)Gal(b1-4)Glc
# Procedure, shortened: as §1
# [15] = target: Neu(a2-3)Gal6S(b1-4)[Fuc(a1-3)]GlcN(b1-3)Gal(b1-4)Glc
# Procedure, shortened: as §1
# [16] = target: Neu(a2-6)Gal(b1-4)Glc
# Procedure, shortened: as §1
# [17] = target: Neu4Ac5Ac(a2-3)Gal(b1-4)Glc
# Procedure, shortened: as §1
# [18] = target: Neu5Ac(a2-3)Gal
# Procedure, shortened: as §1
# [19] = target: Neu5Ac(a2-3)Gal(b1-3)GalNAc(b1-4)Gal(b1-4)Glc
# Procedure, shortened: as §1
# [20] = target: Neu5Ac(a2-3)Gal(b1-3)GalNAc(b1-4)[Neu5Ac(a2-3)]Gal(b1-4)Glc
# Procedure, shortened: as §1
# [21] = target: Neu5Ac(a2-3)Gal(b1-3)GalNAc(b1-4)[Neu5Ac(a2-8)Neu5Ac(a2-3)]Gal(b1-4)Glc
# Procedure, shortened: as §1
# [22] = target: Neu5Ac(a2-3)Gal(b1-3)GlcNAc
# Procedure, shortened: as §1
# [23] = target: Neu5Ac(a2-3)Gal(b1-3)GlcNAc(b1-3)Gal(b1-4)Glc
# Procedure, shortened: as §1
# [24] = target: Neu5Ac(a2-3)Gal(b1-3)GlcNAc(b1-3)[Fuc(a1-3)[Gal(b1-4)]GlcNAc(b1-6)]Gal(b1-4)Glc
# Procedure, shortened: as §1
# [25] = target: Neu5Ac(a2-3)Gal(b1-3)[Fuc(a1-4)]GlcNAc
# Procedure, shortened: as §1
# [26] = target: Neu5Ac(a2-3)Gal(b1-3)[Fuc(a1-4)]GlcNAc(b1-3)Gal(b1-4)Glc
# Procedure, shortened: as §1
# [27] = target: Neu5Ac(a2-3)Gal(b1-3)[Neu5Ac(a2-6)]GalNAc
# Procedure, shortened: as §1
# [28] = target: Neu5Ac(a2-3)Gal(b1-3)[Neu5Ac(a2-6)]GlcNAc(b1-3)Gal(b1-4)Glc
# Procedure, shortened: as §1
# [29] = target: Neu5Ac(a2-3)Gal(b1-4)Glc
# Procedure, shortened: as §1
# [30] = target: Neu5Ac(a2-3)Gal(b1-4)GlcNAc
# Procedure, shortened: as §1
# [31] = target: Neu5Ac(a2-3)Gal(b1-4)GlcNAc(b1-2)Man(a1-3)[Neu5Ac(a2-3)Gal(b1-4)GlcNAc(b1-2)Man(a1-6)]Man(b1-4)GlcNAc(b1-4)[Fuc(a1-6)]GlcNAc
# Procedure, shortened: as §1
# [32] = target: Neu5Ac(a2-3)Gal(b1-4)GlcNAc(b1-3)Gal(b1-4)Glc
# Procedure, shortened: as §1
# [33] = target: Neu5Ac(a2-3)Gal(b1-4)GlcNAc6S(b1-3)Gal6S(b1-3)GlcNAc6S
# Procedure, shortened: as §1
# [34] = target: Neu5Ac(a2-3)Gal(b1-4)[Fuc(a1-3)]GlcNAc
# Procedure, shortened: as §1
# [35] = target: Neu5Ac(a2-3)Gal(b1-4)[Fuc(a1-3)]GlcNAc(b1-3)Gal
# Procedure, shortened: as §1
# [36] = target: Neu5Ac(a2-3)Gal(b1-4)[Fuc(a1-3)]GlcNAc(b1-3)Gal(b1-4)Glc
# Procedure, shortened: as §1
binder,measurement,setting,value
B1,glycan array binding signal (z-score),[1],-0.441
same,glycan array binding signal (z-score),[2],-0.344
same,glycan array binding signal (z-score),[3],-0.063
same,glycan array binding signal (z-score),[4],-0.441
same,glycan array binding signal (z-score),[5],-0.441
same,glycan array binding signal (z-score),[6],-0.441
same,glycan array binding signal (z-score),[7],-0.441
same,glycan array binding signal (z-score),[8],-0.441
same,glycan array binding signal (z-score),[9],-0.441
same,glycan array binding signal (z-score),[10],-0.422
same,glycan array binding signal (z-score),[11],-0.241
same,glycan array binding signal (z-score),[12],-0.441
same,glycan array binding signal (z-score),[13],-0.441
same,glycan array binding signal (z-score),[14],-0.428
same,glycan array binding signal (z-score),[15],-0.441
same,glycan array binding signal (z-score),[16],-0.441
same,glycan array binding signal (z-score),[17],-0.441
same,glycan array binding signal (z-score),[18],-0.394
same,glycan array binding signal (z-score),[19],-0.42
same,glycan array binding signal (z-score),[20],0.307
same,glycan array binding signal (z-score),[21],-0.006
same,glycan array binding signal (z-score),[22],0.479
same,glycan array binding signal (z-score),[23],-0.1
same,glycan array binding signal (z-score),[24],-0.205
same,glycan array binding signal (z-score),[25],0.955
same,glycan array binding signal (z-score),[26],-0.105
same,glycan array binding signal (z-score),[27],0.562
same,glycan array binding signal (z-score),[28],-0.055
same,glycan array binding signal (z-score),[29],-0.14
same,glycan array binding signal (z-score),[30],0.713
same,glycan array binding signal (z-score),[31],0.098
same,glycan array binding signal (z-score),[32],-0.299
same,glycan array binding signal (z-score),[33],2.07
same,glycan array binding signal (z-score),[34],0.85
same,glycan array binding signal (z-score),[35],-0.426
same,glycan array binding signal (z-score),[36],-0.359
